Test results from PubChem BioAssay AID1508642 (National Center for Advancing Translational Sciences (NCATS), 2021).
In all, about 43,000 compounds went through this assay and about 200 (0.47%) were called active. Inconclusive means that the source gave no clear call. Such entries were picked first, then a sample of the others. Calls come from the whole dose curve; as a rule, active = well fitted cell-killing curve with a large enough effect; inconclusive = small, poorly fitted or top-dose-only effect, or effect the other way; inactive = flat fitted curve, though single readings scatter. Where the call is inconclusive, the potency comes from a doubtful curve fit.

Test: Cell viability qHTS assay in S16 Pmp22-F2sN cells; note: nearly all actives have a fitted effect of over 65% in size
Details: S16 Pmp22-F2sN Schwann cells viability, CellTiter-Glo, 24 h; series mostly up to 57.5 µM
How it was run: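 S16 Pmp22-F2sN Schwann cells (500-1,000/well) in phenol-red-free DMEM with 10% FBS received 23 nL compound by pin tool for 24 h at 37 °C. Viability was then read as CellTiter-Glo luminescence after 15 min at room temperature.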
Potency is the fitted concentration of half-maximal effect; tags give direction and shape of the fitted curve.

Structure (SMILES) | Potency
Cc1ccc(Cl)cc1NS(=O)(=O)c1cc2c3c(c1)CC(=O)N3CCC2 | inconclusive: 25.1 µM [cytotoxic, single point]
COc1ccccc1NC(=O)c1sc2nc(C)c(C(=O)Nc3ccc(C)cc3C)c(-c3ccc(C)o3)c2c1N | inactive
COc1ccc(OCC(=O)N2CCN(C(=O)c3cccc(OC)c3)CC2)cc1 | inactive
Cc1cccc(N2CCN(c3nc4ccc(C)cc4n4cnnc34)CC2C)c1 (stereo not given) | inconclusive: 39.8 µM [cytotoxic, partial curve, poor fit]
COc1ccc(Cl)cc1NC(=O)NCC1CCN(Cc2ccccc2F)CC1 | inconclusive: 39.8 µM [cytotoxic, single point]
Cc1ccc(NC(=O)c2nc(S(C)(=O)=O)ncc2N(Cc2ccco2)Cc2ccco2)cc1C | inconclusive: 31.6 µM [cytotoxic, partial curve, poor fit]
COc1ccc(CCC(=O)NCCc2csc(-c3ccc(Cl)cc3)n2)cc1 | inconclusive: 0.0178 µM [rising, full curve, poor fit]
Cc1cccc(NS(=O)(=O)c2ccc3c(c2)CCN3C(=O)C2CCC2)c1 | inactive
O=C(c1cccs1)N1CCCc2cc(NS(=O)(=O)c3ccc(F)cc3F)ccc21 | inconclusive: 4.47 µM [rising, single point]
COc1ccc(Br)cc1CNC(=O)c1ccc2c(c1)N(Cc1ccc(C)cc1)CCS2 | inconclusive: 0.282 µM [rising, full curve, poor fit]
CCOc1cc(CNC(=O)Cn2c(-c3cccs3)cc3cc(F)ccc32)ccc1OC | inconclusive: 39.8 µM [cytotoxic, single point]
CC1=C(c2ccc(C)c(C)c2)S(=O)(=O)N=C1N1CCC(C(=O)NC(C)Cc2ccco2)CC1 (stereo not given) | inconclusive: 2.51 µM [rising, partial curve, poor fit]
Cc1ccc(NC(=O)CSc2nc(-c3ccccc3Cl)nc3cc(=O)[nH]n23)c(C)c1 | inconclusive: 15.8 µM [cytotoxic, partial curve]
COc1cccc(N2CCN(C(=O)c3ccc(NC(=O)c4nsc5ccccc45)cc3)CC2)c1 | inactive
Cc1cc(C)cc(NC(=O)CCCc2nc(-c3ccccc3Cl)no2)c1 | inconclusive: 22.4 µM [cytotoxic, partial curve, poor fit]
Cc1ccc(CNC(=O)C(C)n2ccc3cc(S(=O)(=O)N4CCCC4)ccc32)cc1 (stereo not given) | inconclusive: 17.8 µM [cytotoxic, partial curve, poor fit]
COc1cccc(C2=CC(c3ccccc3F)n3c(nc4ccccc43)N2)c1 (stereo not given) | inconclusive: 39.8 µM [cytotoxic, single point]
CCOc1ccc(N2CC(c3nc4ccccc4n3CCOc3ccc(CC)cc3)CC2=O)cc1 (stereo not given) | inconclusive: 39.8 µM [cytotoxic, single point]
COc1ccc(NC(=O)Cn2c(=O)n(-c3ccc(C)c(C)c3)c(=O)c3c(C)c(C)sc32)cc1 | inconclusive: 25.1 µM [cytotoxic, single point]
Cc1ccc(CCNC(=O)c2ccc(NC(=O)N3CCSc4ccccc43)cc2)cc1 | inactive

Structure (SMILES) | Potency
COc1ccc(N2CCN(c3cc(C)nc4nncn34)CC2)cc1 | inconclusive: 12.6 µM [cytotoxic, partial curve, poor fit]
Cc1ccc(C)c(N2CCN(CCCNC(=O)Nc3ccc(Cl)cc3)CC2)c1 | inconclusive: 39.8 µM [cytotoxic, single point]
Cc1cc(Nc2ccc(F)cc2)nc(-n2nc(C)cc2C)n1 | inconclusive: 4.47 µM [cytotoxic, single point]
Cc1cccc(Nc2c3c(nc4nncn24)CCC3)c1C | inactive
COc1ccccc1N1CCN(CC(O)COc2ccc(C)cc2C(C)(C)C)CC1 (stereo not given) | inconclusive: 39.8 µM [cytotoxic, single point]
Cc1cccc(NC(=O)Cn2c(=O)oc3cc(S(=O)(=O)NC4CCCC4)ccc32)c1 | inactive
CCN1C(=O)C(Cc2nc3ccccc3c(=O)n2-c2ccccc2)c2cc(Br)ccc21 (stereo not given) | inconclusive: 25.1 µM [cytotoxic, partial curve, poor fit]
COc1ccc(C)cc1NC(=O)CSc1nc(=O)n(Cc2ccccn2)c2c1CCC2 | inactive
Cn1nnnc1SCCCNCc1cccc(OCc2ccccc2Cl)c1 | inconclusive: 28.2 µM [cytotoxic, single point]
COc1ccc(CNc2oc(-c3ccc(COc4ccc(OC)cc4)o3)nc2C#N)cc1 | inconclusive: 20 µM [cytotoxic, partial curve, poor fit]
CCn1cc2nc(SCc3cc(C)ccc3C)n(Cc3ccc(OC)cc3)c(=O)c2n1 | inconclusive: 39.8 µM [cytotoxic, partial curve, poor fit]
Cc1cccc(OCCSc2nc3ccc(NC(=O)COc4ccccc4)cc3s2)c1 | inactive
CC(C)NC(=O)C1CCN(C(=O)c2cc3sccc3n2Cc2ccc(Cl)cc2)CC1 | inconclusive: 10 µM [cytotoxic, partial curve]
CCc1c(C)sc2c1CCN(C(=O)Nc1ccc(F)c(Cl)c1)C2c1ccc(F)cc1 (stereo not given) | inconclusive: 31.6 µM [cytotoxic, single point]
CC1CCN(c2oc(/C=C/c3ccc(F)cc3)nc2C#N)CC1 | inactive
COC(=O)CCNC(=O)N1CCN(c2nnc(C)c3c(C)n(-c4ccc(Cl)cc4)nc23)CC1 | inactive
COc1ccc(OC)c(CCNC(=O)c2c3c(nc4ccccc24)C(=O)N(C2CCCCC2)C3)c1 | inconclusive: 8.91 µM [cytotoxic, partial curve, poor fit]
COc1ccccc1-n1c(-c2ccc(C)cc2)cn2c3c(=O)n(C)c(=O)n(C)c3nc12 | inconclusive: 17.8 µM [cytotoxic, partial curve, poor fit]
COc1ccc(NC(=O)c2cnc[nH]2)cc1 | inactive
CCc1ccccc1NC(=O)c1cc(S(=O)(=O)N2CCCc3ccccc32)ccc1F | inconclusive: 14.1 µM [cytotoxic, partial curve]
